Data reported in the RNAGym collection of RNA variant scans (doi:10.7554/elife.90254).
Read counts are not given, so values of variants with three or more changes are uncertain.

B1: OR4K15 (parent)
chain: GUUAACGGUCAUAGGCCAUGGAAACUAGGAGCACCAUUUCGCUGCCAGUGAAGAAAUGAACAAAGAAAAUCUGGGCCAGGCAGGCAUCAAAAGAAAUAGUCUUGCGCUCAACCAGAAAGUCUGUAAUCAUUUUAAGGGUA

Variants of: B1
Experiment: self-cleavage, relative activity (ratio to wild type); higher = more cleavage; in vitro, sequencing; the parent is a self-cleaving ribozyme
With GUUAACGGUCAUAGGCCAUGGAAACUAGGAGCACCAUUUCGCUGCCAGUGAAGAAAUGAACGAAGAAAAUCUGGGCCGGGCAGGCAUCAAAAGAAAUAGUCUUGUGCUCAACCAGAAAGUCUGUAAUCAUUUUAAGGGUA [A62G A78G C105U] the self-cleavage was 0.1. Variant GUUAACGGUCAUAGGCCAUGGAAACUAGGAGCACCAUUUCGCUGCCAGUGAAGAAAUGAACGAAGAAAAUCUGGGCCAGGCGGGCAUCAAAAGAAAUAGUCUUGCGCUCAACCAGAAAGUCUGUAAUCAUUUUAAGGGUC [A62G A82G A140C] has a self-cleavage of 0.61. For GUUAACGGUCAUAGGCCAUGGAAACUAGGAGCACCAUUUCGCUGCCAGUGAAGAAAUGAACGAAGAAAAUCUGGGCCAGGCAGGCAUCAAGAGAAAUAGUCUUGCGCUCAACCAGAAAGUCUGUAAUCAUUUUAAAGGUA [A62G A91G G136A], the self-cleavage was 0.64. Variant GUUAACGGUCAUAGGCCAUGGAAACUAGGAGCACCAUUUCGCUGCCAGUGAAGAAAUGAACGAAGAAAAUCUGGGCCAGGCAGGCAUCAGAAGAAAUAGUCUUGCGCUCAACCAGAAAGUCUGUAAUCAUUUUAGGGGUA [A62G A90G A135G] has a self-cleavage of 0.79. GUUAACGGUCAUAGGCCAUGGAAACUAGGAGCACCAUUUCGCUGCCAGUGAAGAAAUGAACGAAGAAAAUCUGGGCCAGGCAGGCAACAAAAGAAAUAGUCUUGCGCUCAACCAGAAAGUCUGUAGUCAUUUUAAGGGUA [A62G U87A A126G] gave a self-cleavage of 1.01. Work on GUUAACGGUCAUAGGCCAUGGAAACUAGGAGCACCAUUUCGCUGCCAGUGAAGAAAUGAACGAAGAAAAUCUGGGCCAGGCAGGCGUCAAAAGAAAUAGUCUUGCGCUCAACCAGAAAGUCCGUAAUCAUUUUAAGGGUA [A62G A86G U122C] yielded a self-cleavage of 1.71. In the case of GUUAACGGUCAUAGGCCAUGGAAACUAGGAGCACCAUUUCGCUGCCAGUGAAGAAAUGAACGAAGAAAAUCUGGGUCAGGCAGGCAUCAAAAGAAAUAGUCUUGCGCUCAACCAGAGAGUCUGUAAUCAUCUUAAGGGUA [A62G C76U A117G U131C], the self-cleavage is reported as 0.07. In the case of GUUAACGGUCAUAGGCCAUGGAAACUAGGAGCACCAUUUCGCUGCCAGUGAAGAAAUGAACGAAGAAAAUCUGGGCCAGGCAGGCAUCAAAAGAAAUAGUCUUGCGCUCAACCAGAAAGUCUGUAAUCACCUUAAGGGUA [A62G U130C U131C], the self-cleavage is reported as 1.04. GUUAACGGUCAUAGGCCAUGGAAACUAGGAGCACCAUUUCGCUGCCAGUGAAGAAAUGAACGAAGAAAAUCUGGGCCAGGCAGGCAUCAAACGAAAUAGUCCUGCGCUCAACCAGAAAGUCUGUAAUCAUUUUAAGGGUA [A62G A92C U102C] showed a self-cleavage of 2.2. For GUUAACGGUCAUAGGCCAUGGAAACUAGGAGCACCAUUUCGCUGCCAGUGAAGAAAUGAACGAAGAAAACCUGGGCCAGGCAGGCAUCAAAAGAAAUAGUCUUGCGCUCGACCAGAAAGUCAGUAAUCAUUUUAAGGGUA [A62G U70C A110G U122A], the self-cleavage was 0.02. GUUAACGGUCAUAGGCCAUGGAAACUAGGAGCACCAUUUCGCUGCCAGUGAAGAAAUGAACGAAGAAAAUCUGGGCCAGGCAGGCAGCAGAAGAAAUAGUCUUGCGCUCAACCAGAAAGUCUGUAAUCAUUUUAUGGGUA [A62G U87G A90G A135U] showed a self-cleavage of 0.44. For GUUAACGGUCAUAGGCCAUGGAAACUAGGAGCACCAUUUCGCUGCCAGUGAAGAAAUGAACGAAGAAAAUCUGGGCCAGGCAGGCAUCAAAAGAAAUAGUCUUGCGCUCAACCAGAAUGUCUGUACUCAUUUUAAGGGUA [A62G A118U A126C], the self-cleavage was 0.32. Variant GUUAACGGUCAUAGGCCAUGGAAACUAGGAGCACCAUUUCGCUGCCAGUGAAGAAAUGAACGAAGAAAAUCUGGGCCAGGCAGGCAUCAAAAGAAAUGGUCUUGCGCUCGACCAGAAAGUCUGUAAUCAUUUUAAGGGUA [A62G A98G A110G] has a self-cleavage of 0.05. GUUAACGGUCAUAGGCCAUGGAAACUAGGAGCACCAUUUCGCUGCCAGUGAAGAAAUGAACGAAGAAAAUCUGGGCCAGGCAGGCAUCAAAAGAAAUAGUCUUGCGCUCGACCAGAAAGUCUGUAAUCAUUUUGAGGGUA [A62G A110G A134G] showed a self-cleavage of 0.13. With GUUAACGGUCAUAGGCCAUGGAAACUAGGAGCACCAUUUCGCUGCCAGUGAAGAAAUGAACUAAGAUAAUCUGGGCCAGGCAGGCAUCAAAAGGAAUAGACUUGCGCUCAACCAGAAAGUCUGUAAUCAUUUUAAGGGUA [A62U A67U A94G U100A] the self-cleavage was 1.09. With GUUAACGGUCAUAGGCCAUGGAAACUAGGAGCACCAUUUCGCUGCCAGUGAAGAAAUGAACGAAGAAAAUCUGGGCCAGGCAGGCAUCAAAAGAAAUAGUCUUGCGCUCAGCCAGAAAGUCCGUAAUCAUUUUAUGGGUA [A62G A111G U122C A135U] the self-cleavage was 0.01. With GUUAACGGUCAUAGGCCAUGGAAACUAGGAGCACCAUUUCGCUGCCAGUGAAGAAAUGAACGAAGAAAAUCUGGGCCAGGCAGGCAUCAAAAGAGAUAGUCUUGCGCUCAACCAGAAAGUCUGUAAUCAUUUCAAGGGUA [A62G A95G U133C] the self-cleavage was 1.59. With GUUAACGGUCAUAGGCCAUGGAAACUAGGAGCACCAUUUCGCUGCCAGUGAAGAAAUGAACGAAGAAAAUCUGGGCCAGGCAGGCAUCGAAAGAAAUAGUCUUGCGCUCAACCAGAAAGUCUGUAAUCAUUCUAAGGGUA [A62G A89G U132C] the self-cleavage was 1.89. For GUUAACGGUCAUAGGCCAUGGAAACUAGGAGCACCAUUUCGCUGCCAGUGAAGAAAUGAACUUAGAAAACCUGGGCCAGGCAGGCAUCAAAAGAAGUAGUCUUGCGCUCAACCAGAAAGUCUGUAAUCAUUUUAAGGGUA [A62U A63U U70C A96G], the self-cleavage was 0.29. With GUUAACGGUCAUAGGCCAUGGAAACUAGGAGCACCAUUUCGCUGCCAGUGAAGAAAUGAACGAAGAAAAUCUGGGCCAGGCAGGCAUCAAAAAGAAUAGUCUUGCGCUCAACCAGAAAGUCUGUAAUCAUUUUAAGGGUG [A62G G93A A94G A140G] the self-cleavage was 1.34. For GUUAACGGUCAUAGGCCAUGGAAACUAGGAGCACCAUUUCGCUGCCAGUGAAGAAAUGAACGAAGAAAAUCUGGGCCAGGCAGGCAUCAAAAGAAAUAGUCCUGCGCUCAACCAGAAAGCCUGUAAUCAUUUUAAGGGUA [A62G U102C U120C], the self-cleavage was 2.39.
